To fix the notation:
B1: CGAACCA (DNA:RNA)
RNA: GGGAGACCGGAAUUCAGAUUGUCCCGAACCAUUAAAUCCCGUCGUAGCCACCA
DNA 1: CAATCTGAATTCCGGTCTCCC
DNA 2: TGGTGGCTACGACGGGATT
B2: AACCGCC (DNA:RNA)
RNA: B1 RNA with C25A, G26A, A27C, A28C, C29G, A31C
DNA 1: CAATCTGAATTCCGGTCTCCC
DNA 2: TGGTGGCTACGACGGGATT
B3: GUGGCGG (DNA:RNA)
RNA: B1 RNA with C25G, G26U, A27G, A28G, C30G, A31G
DNA 1: CAATCTGAATTCCGGTCTCCC
DNA 2: TGGTGGCTACGACGGGATT
B4: AACCGGG (DNA:RNA)
RNA: GGGAGACCGGAAUUCAGAUUGUCCAACCGGGUUAAAUCCCGUCGUAGCCACCA
DNA 1: CAATCTGAATTCCGGTCTCCC
DNA 2: TGGTGGCTACGACGGGATT
B5: CGCCCGC (DNA:RNA)
RNA: B4 RNA with A25C, A26G, G29C, G31C
DNA 1: CAATCTGAATTCCGGTCTCCC
DNA 2: TGGTGGCTACGACGGGATT
B6: GGACGGC (DNA:RNA)
RNA: B4 RNA with A25G, A26G, C27A, G31C
DNA 1: CAATCTGAATTCCGGTCTCCC
DNA 2: TGGTGGCTACGACGGGATT
B7: ACAAUUG (DNA:RNA)
RNA: B4 RNA with A26C, C27A, C28A, G29U, G30U
DNA 1: CAATCTGAATTCCGGTCTCCC
DNA 2: TGGTGGCTACGACGGGATT
B8: ACGGCGG (DNA:RNA)
RNA: B4 RNA with A26C, C27G, C28G, G29C
DNA 1: CAATCTGAATTCCGGTCTCCC
DNA 2: TGGTGGCTACGACGGGATT
B9: GAAUCUG (DNA:RNA)
RNA: B4 RNA with A25G, C27A, C28U, G29C, G30U
DNA 1: CAATCTGAATTCCGGTCTCCC
DNA 2: TGGTGGCTACGACGGGATT
B10: CUAACCG (DNA:RNA)
RNA: B1 RNA with G26U, A31G
DNA 1: CAATCTGAATTCCGGTCTCCC
DNA 2: TGGTGGCTACGACGGGATT
B11: GAGGGGU (DNA:RNA)
RNA: B4 RNA with A25G, C27G, C28G, G31U
DNA 1: CAATCTGAATTCCGGTCTCCC
DNA 2: TGGTGGCTACGACGGGATT
B12: GUUGUUA (DNA:RNA)
RNA: B1 RNA with C25G, G26U, A27U, A28G, C29U, C30U
DNA 1: CAATCTGAATTCCGGTCTCCC
DNA 2: TGGTGGCTACGACGGGATT
B13: CUCAAUU (DNA:RNA)
RNA: B1 RNA with G26U, A27C, C29A, C30U, A31U
DNA 1: CAATCTGAATTCCGGTCTCCC
DNA 2: TGGTGGCTACGACGGGATT
B14: CAUUAAA (DNA:RNA)
RNA: B1 RNA with G26A, A27U, A28U, C29A, C30A
DNA 1: CAATCTGAATTCCGGTCTCCC
DNA 2: TGGTGGCTACGACGGGATT
B15: AGCGCAA (DNA:RNA)
RNA: B1 RNA with C25A, A27C, A28G, C30A
DNA 1: CAATCTGAATTCCGGTCTCCC
DNA 2: TGGTGGCTACGACGGGATT
B16: CCUGUGC (DNA:RNA)
RNA: B4 RNA with A25C, A26C, C27U, C28G, G29U, G31C
DNA 1: CAATCTGAATTCCGGTCTCCC
DNA 2: TGGTGGCTACGACGGGATT
B17: CGAUCGG (DNA:RNA)
RNA: B1 RNA with A28U, C30G, A31G
DNA 1: CAATCTGAATTCCGGTCTCCC
DNA 2: TGGTGGCTACGACGGGATT
B18: UUCAGGC (DNA:RNA)
RNA: B4 RNA with A25U, A26U, C28A, G31C
DNA 1: CAATCTGAATTCCGGTCTCCC
DNA 2: TGGTGGCTACGACGGGATT
B19: GGUGAGA (DNA:RNA)
RNA: B1 RNA with C25G, A27U, A28G, C29A, C30G
DNA 1: CAATCTGAATTCCGGTCTCCC
DNA 2: TGGTGGCTACGACGGGATT
B20: UGAAAAG (DNA:RNA)
RNA: B1 RNA with C25U, C29A, C30A, A31G
DNA 1: CAATCTGAATTCCGGTCTCCC
DNA 2: TGGTGGCTACGACGGGATT

Numbering of substitutions follows the chain as printed; changes in the protein carry UniProt numbers. This is one part of the list.

In this assay the target is T1, RBFOX1 RRM (Homo sapiens, UniProt Q9NWB1 109-208).
T1 sequence: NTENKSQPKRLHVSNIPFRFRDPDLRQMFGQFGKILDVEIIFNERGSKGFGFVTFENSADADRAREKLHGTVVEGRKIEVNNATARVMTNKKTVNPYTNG
Nature of the assay: EMSA; HiTS-Eq, 1 nM pool, 10 min; buffer printed only for the single-RNA assays: 10 mM Tris pH 7.5, 150 mM NaCl, 3.4 mM EDTA, 0.001% NP-40, 30 C. The settings on record: tags: His6 N-terminal (pET28a); label: 5' 32P. An outline of the steps:
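Relative association constants, normalised to the cognate motif, were derived by comparing read counts of each RNA species with those of the control reaction. The RNA sequenced was the free fraction, separated by 8% native PAGE after a 10 min equilibration in 50 µL of 1 nM 5′-radiolabelled RNA (7 randomized nucleotides) with increasing concentrations of purified wild-type or mutant RbFox RRM.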
For the molecule B1, the binding signal is 0.00106 KA relative to UGCAUGU.

B2: the binding signal was 0.00718 KA relative to UGCAUGU. The result for B3 reads 0.0226 KA relative to UGCAUGU; that for B4, 0.00402 KA relative to UGCAUGU. The result for B5 reads 0.0134 KA relative to UGCAUGU. Then B6, with 0.0213 KA relative to UGCAUGU; and B7, with 0.00769 KA relative to UGCAUGU; and B8, with 0.0186 KA relative to UGCAUGU.

As for B9, the binding signal is 0.0153 KA relative to UGCAUGU.

As for B10, the binding signal is 0.00358 KA relative to UGCAUGU. Then B11, with 0.0189 KA relative to UGCAUGU; and B12, with 0.0141 KA relative to UGCAUGU; and B13, with 0.00356 KA relative to UGCAUGU. Then B14, with 0.000938 KA relative to UGCAUGU; and B15, with 0.00715 KA relative to UGCAUGU.

Turning to B16, the binding signal is 0.0232 KA relative to UGCAUGU. Then B17, with 0.0141 KA relative to UGCAUGU. The result for B18 reads 0.0127 KA relative to UGCAUGU; that for B19, 0.00596 KA relative to UGCAUGU.

Consider B20, for which the binding signal was 0.0154 KA relative to UGCAUGU.
